Source: PubChem BioAssay AID1963576 (National Center for Advancing Translational Sciences (NCATS), 2024)
In all, about 46,000 compounds went through this assay and about 60 (0.1%) were called active. Another 3% or so got no clear call; they are omitted. The call rests on the fitted dose curve; in most records, active means well fitted inhibition curve with a large enough effect; inconclusive means small, poorly fitted or top-dose-only effect; inactive means no such curve, though single readings can be large or run the other way. Some of the results follow.

Assay: Primary qHTS assay for Inhibitors of ovarian cancer metastasis using an organotypic tumor microenvironment (TME) model. Further: nearly all actives have a fitted effect of over 65% in size.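 On activity change, negative = inhibition: plate controls were DMSO wells for no effect and tomatine positive control wells for full effect.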
Conditions: SKOV3ip1-GFP adhesion/invasion on 3D omental model, fluorescence; series mostly up to 45.8 µM; activity change, negative = inhibition: at the top concentration
Method in brief: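 Adhesion/invasion was scored as fixed GFP-labeled SKOV3ip1 cell counts (488/509 nm), normalized to DMSO and tomatine controls. Cancer cells in serum-free medium, with four compound doses (0.36-46 umol/L), sat 2 hr at RT then 16 hr at 37 C on a 48 hr fibroblast/mesothelial/ECM culture.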

Compound | activity change, negative = inhibition | outcome
Cc1ccc(C(=O)Nc2ccccc2)cc1S(=O)(=O)Nc1ccccc1 | inactive: 24.5% | –
Cc1ccc(C)c(-n2nnc(-c3nc(-c4ccccc4C)no3)c2C)c1 | inactive: -3.89% | –
COc1ccc(-c2nn(-c3ccc(C)cc3)c3c2cnc2ccc(C)cc23)cc1OC | – | inactive
COC(=O)c1cc2occc2n1CC(=O)Nc1ccc(C)cc1Cl | inactive: 2.29% | –
COc1ccc(CCNc2nc3cc(OC)c(OC)cc3c3nc(-c4ccccc4)nn23)cc1OC | inactive: 8.72% | –
COC(=O)c1cc(NC(=O)c2sc3ccccc3c2Cl)cc(C(=O)OC)c1 | inactive: 0.94% | –
CCOc1ccc(-c2nc(CSCC(=O)NCc3ccc(C)cc3)c(C)o2)cc1 | inactive: -7.71% | –
O=C(O)c1cccc(-n2cnc3cccnc32)c1 | inactive: 8.54% | –
O=C(NCC(c1cccnc1)N1CCN(Cc2ccccc2)CC1)C(=O)Nc1cccc(Cl)c1 (stereo not drawn) | inactive: 6.3% | –
CC1=C(C(=O)O)N2C(=O)[C@@H](NC(=O)[C@H](N)C3=CCC=CC3)[C@H]2SC1 | inactive: 15.6% | –
COc1cccc(NC(=O)c2cc3c(-c4ccc(Cl)cc4)nn(C)c3s2)c1 | inactive: 5.77% | –
Cc1coc2cc3oc(=O)c(CCC(=O)NCc4ccccc4Cl)c(C)c3cc12 | inactive: 2.06% | –
CCCN1CCN(CCCNC(=O)C(CC)n2nc(C)n3c(cc4occc43)c2=O)CC1 (stereo not drawn) | – | inactive
COCc1c(Br)c(C)nc2sc3c(=O)n(-c4cccc(Br)c4)nnc3c12 | inactive: -0.579% | –
N#Cc1ccccc1CSc1nnc2ccc3ccccc3n12 | inactive: 6.98% | –
CCN(CC)CCNC(=O)c1cn(CC)c2ccc(S(=O)(=O)N(C)C3CCCCC3)cc2c1=O | – | inactive
Cn1c(C(=O)N2CCC(C(=O)NCCc3ccccc3)CC2)cc2sccc21 | – | inactive
CCC(C(=O)NC1CCCCC1)n1c(SCc2cccc(C)c2)nc2ccncc21 (stereo not drawn) | – | inactive
CCN1C(=O)c2ccccc2S(=O)(=O)c2ccc(C(=O)NCc3ccc(OC)cc3)cc21 | – | inactive
Cc1cc(=O)n(CC(=O)NC(C)c2ccccc2)c2c1c(C)nn2-c1cccc(F)c1 (stereo not drawn) | – | inactive
CC(NC(=O)c1ccco1)c1nc(-c2ccccc2)no1 (stereo not drawn) | – | inactive
COc1cc(OC)cc(-c2cc3nc(C)c(CCC(=O)Nc4ccccc4OC)c(C)n3n2)c1 | inactive: 8.62% | –
CCc1ccccc1NC(=O)CSc1nnc(-c2ccccc2)c(-c2ccccc2)n1 | inactive: -2.13% | –
O=C(CN(c1ccc(Cl)c(C(F)(F)F)c1)S(=O)(=O)c1ccccc1)Nc1cccnc1 | inactive: 6.54% | –

Compound | activity change, negative = inhibition | outcome
COCCNC(=O)Cn1c(=O)c2cccn2c2ccc(F)cc21 | inactive: -4.46% | –
O=C(NCc1ccc2c(c1)OCO2)c1ccc2c(c1)N(Cc1ccccc1F)C(=O)c1ccccc1S2=O (stereo not drawn) | inactive: -10.2% | –
CCOC(=O)c1c(-c2ccccc2)oc2ccc(N(C(C)=O)S(=O)(=O)c3ccccc3)cc12 | inactive: -9.07% | –
Cc1ccccc1C(=O)Nc1c(C(=O)Nc2cccc(F)c2)oc2ccccc12 | inactive: 31.8% | –
CCSc1oc(-c2cccs2)nc1S(=O)(=O)c1ccc(Br)cc1 | inactive: -6.66% | –
NC(=O)CSc1nc2c(oc3ccccc32)c(=O)n1Cc1ccccc1 | – | inactive
CCc1nnc(NC(=O)c2nc(SC)ncc2Cl)s1 | inactive: -13% | –
COc1ccccc1CNC(=O)c1cc2c(-c3ccc(Cl)cc3)nn(C)c2s1 | inactive: -1.48% | –
CCn1ccc2c(OCC(=O)Nc3ccc(C(C)=O)cc3)cccc2c1=O | inactive: -2.58% | –
COc1ccccc1CNC(=O)C1CCN(C(=O)c2sccc2-n2cccc2)CC1 | inactive: 2.88% | –
CN(C1CCCCC1)S(=O)(=O)c1ccc2c(c1)c(=O)c(C(=O)NCc1ccc(F)cc1)cn2C | inactive: -0.347% | –
CCOc1ccc(Cn2nnc(C(=O)Nc3ccc(Cl)cc3)c2N)cc1 | inactive: 35.1% | –
CCCN(C(=O)c1c(C)oc2ncnc(N3CCOCC3)c12)c1ccc(Cl)c(Cl)c1 | inactive: -16.3% | –
Cc1cccn2c3c(c(=O)nc12)C(c1ccc(F)cc1)CC(=O)N3 (stereo not drawn) | inactive: -2.82% | –
O=S(=O)(NCC(c1ccco1)N1CCN(c2ccccc2)CC1)c1ccccc1 (stereo not drawn) | – | inactive
Cc1cc(C)cc(N2CC(c3nnc(NC(=O)c4ccco4)s3)CC2=O)c1 (stereo not drawn) | inactive: 13.6% | –
COc1cc(C(=O)Nc2ccc(-n3c(C)nc4ccccc4c3=O)cc2)cc(OC)c1OC | inactive: 6.69% | –
O=C(c1ccccc1)N1CCCC(c2nc3c(nnn3Cc3ccc(F)cc3F)c(=O)[nH]2)C1 (stereo not drawn) | inactive: 3.98% | –
Cc1nc2cccnc2n1C1CCN(C(=O)Nc2ccccc2)CC1 | inactive: -0.177% | –
O=C(COCc1cc(-c2cccs2)on1)N1CCN(c2ccc(F)cc2)CC1 | inactive: 7.74% | –
O=c1c(=O)n(-c2ccccc2)ccn1Cc1c(F)cccc1Cl | inactive: 6.56% | –
COc1cc(CNCCSc2nnnn2C)ccc1OCc1ccc(C)cc1 | inactive: 5.06% | –
CCSc1ncc(Cl)c(C(=O)N(Cc2ccccc2)c2ccc(OC)cc2)n1 | – | inactive
CCOc1cccc(NC(=O)c2sc3nc(-c4ccc(F)cc4)ccc3c2N)c1 | – | inactive
